Consider 58 compounds from PubChem BioAssay AID360 (National Center for Advancing Translational Sciences (NCATS), 2006).

SMILES strings stand for the structures. In all, about 48,000 compounds went through this assay and about 550 (1.1%) were called active. About 4% were inconclusive and are not listed. Rule as the data show it: active = potency below about 15 µM; inconclusive = mostly about 16 µM to 33 µM; inactive = weaker than that. Some of the results follow.
Potency is read from the fitted curve at half-maximal effect.

This assay deals with Lysosomal acid glucosylceramidase (Homo sapiens) (UniProt P04062). Kind of assay: Glucocerebrosidase.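 Also: the screen sought inhibitors.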 To be noted: purified enzyme, resorufin glucoside fluorescence (screen aimed at inhibitors), 20 min. The method, boiled down: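 Normal human glucocerebrosidase (0.2 nM final) was assayed with resorufin β-D-glucopyranoside (30 uM final) in 50mM citric acid/KH2PO4, 10mM sodium taurocholate, 0.01% tween-20, pH 5.9. Compounds were titrated; fluorescence (Ex 548, Em 600) read after 20 min at RT.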
Chain of UniProt P04062 (P04062 whole entry, looked up): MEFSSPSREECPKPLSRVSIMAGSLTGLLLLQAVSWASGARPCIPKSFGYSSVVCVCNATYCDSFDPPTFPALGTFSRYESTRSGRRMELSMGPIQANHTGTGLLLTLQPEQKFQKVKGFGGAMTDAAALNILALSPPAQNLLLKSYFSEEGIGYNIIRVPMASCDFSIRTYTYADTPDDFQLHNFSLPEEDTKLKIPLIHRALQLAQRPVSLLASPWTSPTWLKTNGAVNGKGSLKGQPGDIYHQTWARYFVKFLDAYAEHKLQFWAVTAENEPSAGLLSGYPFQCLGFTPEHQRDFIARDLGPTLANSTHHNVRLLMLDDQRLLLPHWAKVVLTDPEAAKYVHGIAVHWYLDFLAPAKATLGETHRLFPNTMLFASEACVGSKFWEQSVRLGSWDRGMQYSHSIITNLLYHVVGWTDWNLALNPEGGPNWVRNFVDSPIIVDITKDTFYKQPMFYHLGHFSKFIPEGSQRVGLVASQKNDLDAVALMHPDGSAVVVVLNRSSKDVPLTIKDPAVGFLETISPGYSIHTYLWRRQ
Turning to `CCOc1cc(/C=N/n2cnnc2)cc(Br)c1O`, the Potency was inactive: > 76.9 µM.

Regarding `c1cncc(-c2noc(C34CC5CC(CC(C5)C3)C4)n2)c1`, the Potency is inactive: > 76.9 µM.

Regarding `CCOC(=O)N1CCN(Cc2nc3c(c(=O)[nH]c(=O)n3C)n2CCCc2ccccc2)CC1`, the Potency was inactive: > 76.9 µM.

`COc1cc(S(=O)(=O)N2CCN(C)CC2)ccc1Cl`: the Potency was inactive: > 76.9 µM.

For `CCOC(=O)c1cc(NC(=O)N2CCCc3ccccc32)c(C)nc1C`, the Potency is inactive: > 76.9 µM.

For the compound `CCOc1ccccc1OCC(=O)Nc1ccc(N2CCCCC2)cc1`, the Potency was inactive: > 76.9 µM.

As to `CC(C)CC(C(=O)Nc1ccc2c(c1)OCCO2)N1C(=O)c2ccccc2C1=O` (stereo not drawn), the Potency is inactive: > 76.9 µM.

With `Cc1cc(C)n2nc(SCC(=O)c3ccc[nH]3)nc2n1`, the Potency is inactive: > 76.9 µM.

On to `O=C(c1oc2ccccc2c1CSCc1ccccc1)N1CCN(c2ncccn2)CC1`, for which the Potency was inactive: > 76.9 µM.

`CCOC(=O)C(NC(=O)OC(C)C)(Nc1nccs1)C(F)(F)F` (stereo not drawn): the Potency is inactive: > 76.9 µM.

As for `CCN(CC)S(=O)(=O)N1CCC(C(=O)NC2CCCC2)CC1`, the Potency was inactive: > 76.9 µM.

Take `Clc1ccc(C(c2nnnn2C2CCCCC2)N(Cc2cccnc2)Cc2ccco2)cc1` (stereo not drawn): the Potency was active: 12.8 µM.

For the compound `O=c1cc(C(F)(F)F)c2sc(N3CCCCC3)nc2[nH]1`, the Potency is inactive: > 76.9 µM.

In the case of `Cc1cccc(-n2c(CCN3C(=O)c4ccccc4C3=O)nc3ccccc3c2=O)n1`, the Potency is inactive: > 76.9 µM.

For `OC(Cn1cncn1)c1ccc(Cl)cc1` (stereo not drawn), the Potency is inactive: > 76.9 µM.

On to `COC(=O)c1c(C)oc2ccc(NS(=O)(=O)c3cccs3)cc12`, for which the Potency was inactive: > 76.9 µM.

For the compound `CC(=O)c1ccc(N2CCN(C(=O)c3ccc(OCc4c(C)noc4C)cc3)CC2)cc1`, the Potency is inactive: > 76.9 µM.

Turning to `Cc1cccn2c(=O)c3cc(C#N)c(=N)n(CCN4CCOCC4)c3nc12`, the Potency was inactive: > 76.9 µM.

Take `CCc1ccc(OC)c(S(=O)(=O)NCCOc2ccccc2)c1`: the Potency was inactive: > 76.9 µM.

As to `CCOc1ccccc1C1N(c2ccc(F)cc2)C(=O)C2CCCN21` (stereo not drawn), the Potency was inactive: > 76.9 µM.

Regarding `CC(C)Oc1ccc(C2CC(=O)NC3=C2C(=O)CCC3)cc1` (stereo not drawn), the Potency is inactive: > 76.9 µM.

For the compound `Cc1ccc2nc(NC3=NCN(C4CCCCC4)CN3)nc(C)c2c1`, the Potency is inactive: > 76.9 µM.

As for `CCCCC(c1nnnn1C1CCCC1)N1CCN(C(=O)c2ccco2)CC1` (stereo not drawn), the Potency is inactive: > 76.9 µM.

`CC(C)n1nc(C(=O)Nc2nc3ccc(S(C)(=O)=O)cc3s2)c2ccccc2c1=O`: the Potency was inactive: > 76.9 µM.

Take `COc1cc(C)c(Cl)cc1S(=O)(=O)NCc1ccncc1`: the Potency is inactive: > 76.9 µM.

In the case of `O=c1oc2ccccc2n1CCc1ccccc1`, the Potency is inactive: > 76.9 µM.

Regarding `COC(=O)C1=C(C)NC(=O)CC1c1cccc(OC)c1OC` (stereo not drawn), the Potency is inactive: > 76.9 µM.

Take `Cc1ccc(S(=O)(=O)Nn2c(C)nnc2-n2nc(C)cc2C)cc1`: the Potency was inactive: > 76.9 µM.

In the case of `COc1ccc2[nH]c3ccc(OC)cc3c2c1`, the Potency was inactive: > 76.9 µM.

Take `CC1(C)CC(=O)c2cc(OCC(=O)NCC3CCCO3)ccc2O1` (stereo not drawn): the Potency is inactive: > 76.9 µM.

`COc1ccc(S(=O)(=O)Cc2ccc(C(=O)NCCCN(C)c3ccccc3)o2)cc1`: the Potency is inactive: > 76.9 µM.

Regarding `CCOC(=O)c1cccc(NC(=O)c2cc3sccc3n2C)c1`, the Potency is inactive: > 15.4 µM.

As to `CCCCNC(=O)c1cc2c(=O)n3cccc(C)c3nc2n(CCN2CCOCC2)c1=N`, the Potency was inactive: > 76.9 µM.

For the compound `Cc1sc2nc(SCC(=O)c3cc(C)n(CC4CCCO4)c3C)n(C(C)C)c(=O)c2c1C` (stereo not drawn), the Potency was inactive: > 76.9 µM.

With `COc1ccc(N2CCN(C(=O)Cc3nn(C)c(=O)c4ccccc34)CC2)cc1`, the Potency is inactive: > 76.9 µM.

Consider `CCOC(=O)c1sc(-c2ccc(OC)cc2)cc1N`, for which the Potency is inactive: > 76.9 µM.

For `O=C(CSc1nnc(Cc2csc(Nc3cccc(Cl)c3)n2)o1)N1CCc2ccccc21`, the Potency is active: 14.5 µM.

Regarding `Cc1ccc(NC(=O)C2(N(CC(C)C)C(=O)Cn3nnnc3N)CCCCC2)cc1`, the Potency is inactive: > 76.9 µM.

For the compound `CC(=O)N1C(c2ccccc2)CC(=O)OC1c1ccc2c(c1)OCO2` (stereo not drawn), the Potency was inactive: > 76.9 µM.

As to `N#CCSc1nnc(Cc2cccs2)n1C1CCCCC1`, the Potency was inactive: > 76.9 µM.

Consider `COc1ccc(S(=O)(=O)Nc2ccccc2C(F)(F)F)cc1`, for which the Potency was inactive: > 76.9 µM.

Consider `CN(C)C(=O)c1c(-c2ccccc2)oc2ccc(O)cc12`, for which the Potency was inactive: > 76.9 µM.

On to `Cc1ccc(S(=O)(=O)N2CCCC2C(=O)O)cc1` (stereo not drawn), for which the Potency was inactive: > 76.9 µM.

With `CC(C)n1c(SCC(=O)Nc2ccccc2N2CCCCC2)nc2c1c(=O)n(C)c(=O)n2C`, the Potency is inactive: > 76.9 µM.

In the case of `O=C(c1ccco1)N1CCC(n2nnc3ccccc32)CC1`, the Potency was inactive: > 76.9 µM.

As to `O=C(NCc1ccco1)c1cnn2c(C(F)F)cc(-c3ccccc3)nc12`, the Potency was inactive: > 76.9 µM.

Regarding `COC(=O)c1cc(-c2c(C)oc3cc(OC)ccc3c2=O)c(C)o1`, the Potency was inactive: > 76.9 µM.

On to `Cc1ccc(C)c(N2C(=O)CN=C2Nc2ccccc2Cl)c1`, for which the Potency was inactive: > 76.9 µM.

With `CCOc1cc(CNn2cnnc2)ccc1OCC(=O)NC1CCCCC1`, the Potency was inactive: > 76.9 µM.

As for `Cc1cccc(NC2=NCC(=O)N2Cc2ccccc2)c1`, the Potency was inactive: > 76.9 µM.

Consider `COc1cc(-c2nc(S(=O)(=O)c3ccccc3)c(N3CCOCC3)o2)cc(OC)c1OC`, for which the Potency was inactive: > 76.9 µM.

Take `Nc1nonc1-c1noc(N2CCCCC2)n1`: the Potency is inactive: > 76.9 µM.

On to `Cc1nc(C)c(-c2csc(Nc3cccnc3)n2)s1`, for which the Potency is inactive: > 76.9 µM.

In the case of `COc1cc(-c2nc(Cc3ccccc3Cl)no2)cc(OC)c1OC`, the Potency was inactive: > 76.9 µM.

Consider `CC1=C(C(=O)OCC2CCCO2)C(c2ccc(O)cc2)NC(=O)N1` (stereo not drawn), for which the Potency was inactive: > 76.9 µM.

As for `Cc1ccc(S(=O)(=O)N2CCN(C3CC(=O)N(Cc4ccccc4)C3=O)CC2)cc1C` (stereo not drawn), the Potency was inactive: > 76.9 µM.

Consider `CCOC(=O)N1CCC(NC(=O)c2cc(S(=O)(=O)N3CCCC3)cn2C)CC1`, for which the Potency is inactive: > 76.9 µM.

For the compound `COC(=O)C1=C(C)NC(C)=C(C(=O)OC)C1c1cc2cc(C)ccc2[nH]c1=O`, the Potency was inactive: > 76.9 µM.
